The supplement of paper PMC10126150
Sequences with one replicate were seen in a single cluster, so their values are uncertain.

Tested on: ATP
Experiment: switch fluorescence ratio, 500 uM ATP over buffer (Cy3 cluster intensity, sum of 5 cycles each) (fold (ratio)); higher = stronger signal-on switching upon ATP binding; sequences stand for … in TCGTCGGCAGCGTCAGATGTGTATAAGAGACAGTTTTTTTTTTTTTTTTTTTTTTTTT…TC
Conditions: aptamer strand: ATP DNA aptamer (quencher-CACCTGGGGGAGTATTGCGGAGGAAGG + anchor), 100 nM annealed; ATP concentration: 500 uM; one replicate
How it was run: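 Clusters with intensities outside 100-1000 RFU were excluded. The remaining Cy3-labelled switching-strand clusters on a modified Illumina MiSeq flow-cell had been annealed to 100 nM quencher-labelled ATP aptamer and imaged in selection buffer, then after 15 min with 500 uM ATP at 22 °C, for five cycles separated by NaOH stripping and re-annealing. The fluorescence ratio, averaged per switch-domain sequence, is each cluster's summed target-cycle Cy3 intensity over its summed buffer-cycle Cy3 intensity.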
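Note: ATP exposure 15 min at 22 °C before imaging.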

Row | Sequence | switch fluorescence ratio
1 | CATTCCCTT | 1
2 | CATTCCGGAC | 1.73
3 | CATTGAAAAC | 1.06
4 | CATTGACTAA | 0.996
5 | CATTGACTCG | 1.02
6 | CATTGCCACT | 0.958
7 | CATTGGACGC | 0.999
8 | CATTGGATTT | 0.984
9 | CATTGGTCT | 0.996
10 | CATTGTAGTA | 0.958
11 | CATTGTATAC | 1.17
12 | CATTGTGAGT | 0.941
13 | CATTTAAGTG | 1.03
14 | CATTTAGGGT | 0.968
15 | CATTTCATGG | 0.995
16 | CATTTCCCGG | 1.04
17 | CATTTCGGCC | 1.01
18 | CATTTGAAAA | 1.13
19 | CATTTGGGGA | 0.994
20 | CATTTGTAGA | 1.04
21 | CATTTGTGTG | 0.983
22 | CATTTTAGA | 1.01
23 | CATTTTCAGA | 1
24 | CATTTTGTTC | 0.973
25 | CATTTTTATG | 1.02

Row | Sequence | switch fluorescence ratio
26 | CCAAACATGG | 0.976
27 | CCAAAGGTTG | 1.01
28 | CCAAATCCAG | 1
29 | CCAACAAGTT | 1.01
30 | CCAACACACG | 1.38
31 | CCAACACAGG | 1.94
32 | CCAACTTAGT | 1
33 | CCAAGCACTA | 3.49
34 | CCAAGCGACC | 2.58
35 | CCAAGCGCAT | 4.67
36 | CCAAGCGGTG | 1.17
37 | CCAAGGACTG | 1.09
38 | CCAAGGGATT | 0.992
39 | CCAAGGTAGT | 1.06
40 | CCAAGGTTCC | 1.07
41 | CCAAGTCTTA | 1.02
42 | CCAATAACGA | 1.03
43 | CCAATAAGCT | 1.04
44 | CCAATAGGTT | 1
45 | CCAATAGTAT | 0.935
46 | CCAATCAGAG | 0.924
47 | CCAATCCATT | 0.99
48 | CCAATGCATT | 1.22
49 | CCAATGTAAA | 1
50 | CCAATTCGCA | 1.67

Row | Sequence | switch fluorescence ratio
51 | CCACACCCCC | 2.56
52 | CCACACTTGA | 1
53 | CCACAGAGGC | 1.08
54 | CCACCAGCGT | 2.22
55 | CCACCCCAAG | 1.42
56 | CCACCTTTTA | 1.12
57 | CCACGCCAAT | 4.55
58 | CCACGGGTAA | 1.04
59 | CCACTATACA | 1.32
60 | CCACTTGGAA | 0.931
61 | CCAGAAAGTT | 0.997
62 | CCAGAGATG | 1.03
63 | CCAGAGATGT | 1
64 | CCAGAGCCTT | 1.48
65 | CCAGATTGTG | 1.03
66 | CCAGCACCCG | 1.11
67 | CCAGCACGGA | 1.05
68 | CCAGCAGCGA | 2.77
69 | CCAGCATCAT | 1
70 | CCAGCCAGGC | 1.09
71 | CCAGCGGAAT | 1.06
72 | CCAGCTCTAG | 1.02
73 | CCAGGCATGC | 1.31
74 | CCAGGGTTAT | 1.02
75 | CCAGGTCAGG | 1.16

Row | Sequence | switch fluorescence ratio
76 | CCAGGTCTAG | 1.08
77 | CCAGGTCTTT | 1.09
78 | CCAGTCGAGC | 0.969
79 | CCAGTCTACG | 1.01
80 | CCAGTGGACA | 0.996
81 | CCAGTGGAGA | 1.04
82 | CCAGTGTGCA | 1.29
83 | CCAGTTGCTG | 0.986
84 | CCATAATAAC | 1.21
85 | CCATACGCAG | 2.22
86 | CCATAGACAG | 1.02
87 | CCATAGTACT | 1.18
88 | CCATCATTGT | 0.991
89 | CCATCCATTT | 1.13
90 | CCATCCGCGT | 5.04
91 | CCATGACGTT | 1.03
92 | CCATGATGTC | 1.03
93 | CCATGGACCC | 1.03
94 | CCATGGCTAG | 1.02
95 | CCATGGCTTA | 1.03
96 | CCATGGTCCC | 1.02
97 | CCATGGTGG | 0.98
98 | CCATGGTTGC | 1.06
99 | CCATGTCAAT | 1.28
100 | CCATGTTCGC | 1.04
